# Laboratory results: PMC9911399, “Two distinct binding modes provide the RNA-binding protein RbFox with extraordinary sequence specificity”
# Changes are numbered by the printed parent chain; changes in the protein carry UniProt numbers. The list shows a part of the results.
# T1: RBFOX1 RRM (Homo sapiens, UniProt Q9NWB1 109-208)
# T1 sequence: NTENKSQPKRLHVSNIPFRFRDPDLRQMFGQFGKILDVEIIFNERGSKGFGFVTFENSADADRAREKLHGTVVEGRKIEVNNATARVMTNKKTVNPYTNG
# B1: CGCACUC (DNA:RNA)
# RNA: GGGAGACCGGAAUUCAGAUUGUCCCGCACUCUUAAAUCCCGUCGUAGCCACCA
# DNA 1: CAATCTGAATTCCGGTCTCCC
# DNA 2: TGGTGGCTACGACGGGATT
# B2: CCAGGCG (DNA:RNA)
# RNA: B1 RNA with G26C, C27A, A28G, C29G, U30C, C31G
# DNA 1: CAATCTGAATTCCGGTCTCCC
# DNA 2: TGGTGGCTACGACGGGATT
# B3: GUAGGGA (DNA:RNA)
# RNA: GGGAGACCGGAAUUCAGAUUGUCCGUAGGGAUUAAAUCCCGUCGUAGCCACCA
# DNA 1: CAATCTGAATTCCGGTCTCCC
# DNA 2: TGGTGGCTACGACGGGATT
# B4: ACAGUUA (DNA:RNA)
# RNA: B3 RNA with G25A, U26C, G29U, G30U
# DNA 1: CAATCTGAATTCCGGTCTCCC
# DNA 2: TGGTGGCTACGACGGGATT
# B5: AUAAGUG (DNA:RNA)
# RNA: B3 RNA with G25A, G28A, G30U, A31G
# DNA 1: CAATCTGAATTCCGGTCTCCC
# DNA 2: TGGTGGCTACGACGGGATT
# B6: ACAUAGG (DNA:RNA)
# RNA: B3 RNA with G25A, U26C, G28U, G29A, A31G
# DNA 1: CAATCTGAATTCCGGTCTCCC
# DNA 2: TGGTGGCTACGACGGGATT
# B7: UAUCCAA (DNA:RNA)
# RNA: B1 RNA with C25U, G26A, C27U, A28C, U30A, C31A
# DNA 1: CAATCTGAATTCCGGTCTCCC
# DNA 2: TGGTGGCTACGACGGGATT
# B8: GAGAACA (DNA:RNA)
# RNA: B3 RNA with U26A, A27G, G28A, G29A, G30C
# DNA 1: CAATCTGAATTCCGGTCTCCC
# DNA 2: TGGTGGCTACGACGGGATT
# B9: AGAGAUU (DNA:RNA)
# RNA: B1 RNA with C25A, C27A, A28G, C29A, C31U
# DNA 1: CAATCTGAATTCCGGTCTCCC
# DNA 2: TGGTGGCTACGACGGGATT
# B10: UGUUUUA (DNA:RNA)
# RNA: B1 RNA with C25U, C27U, A28U, C29U, C31A
# DNA 1: CAATCTGAATTCCGGTCTCCC
# DNA 2: TGGTGGCTACGACGGGATT
# B11: AACCUGU (DNA:RNA)
# RNA: B1 RNA with C25A, G26A, A28C, C29U, U30G, C31U
# DNA 1: CAATCTGAATTCCGGTCTCCC
# DNA 2: TGGTGGCTACGACGGGATT
# B12: GACUACA (DNA:RNA)
# RNA: B3 RNA with U26A, A27C, G28U, G29A, G30C
# DNA 1: CAATCTGAATTCCGGTCTCCC
# DNA 2: TGGTGGCTACGACGGGATT
# B13: UUUUAGG (DNA:RNA)
# RNA: B3 RNA with G25U, A27U, G28U, G29A, A31G
# DNA 1: CAATCTGAATTCCGGTCTCCC
# DNA 2: TGGTGGCTACGACGGGATT
# B14: UUUCUUU (DNA:RNA)
# RNA: B1 RNA with C25U, G26U, C27U, A28C, C29U, C31U
# DNA 1: CAATCTGAATTCCGGTCTCCC
# DNA 2: TGGTGGCTACGACGGGATT
# B15: GUAAUGU (DNA:RNA)
# RNA: B3 RNA with G28A, G29U, A31U
# DNA 1: CAATCTGAATTCCGGTCTCCC
# DNA 2: TGGTGGCTACGACGGGATT
# B16: UCCCCAG (DNA:RNA)
# RNA: B1 RNA with C25U, G26C, A28C, U30A, C31G
# DNA 1: CAATCTGAATTCCGGTCTCCC
# DNA 2: TGGTGGCTACGACGGGATT
# B17: AACGCGA (DNA:RNA)
# RNA: B3 RNA with G25A, U26A, A27C, G29C
# DNA 1: CAATCTGAATTCCGGTCTCCC
# DNA 2: TGGTGGCTACGACGGGATT
# B18: ACUUUCU (DNA:RNA)
# RNA: GGGAGACCGGAAUUCAGAUUGUCCACUUUCUUUAAAUCCCGUCGUAGCCACCA
# DNA 1: CAATCTGAATTCCGGTCTCCC
# DNA 2: TGGTGGCTACGACGGGATT
# B19: ACACCCC (DNA:RNA)
# RNA: B18 RNA with U27A, U28C, U29C, U31C
# DNA 1: CAATCTGAATTCCGGTCTCCC
# DNA 2: TGGTGGCTACGACGGGATT
# B20: UUCAGUU (DNA:RNA)
# RNA: B1 RNA with C25U, G26U, C29G, C31U
# DNA 1: CAATCTGAATTCCGGTCTCCC
# DNA 2: TGGTGGCTACGACGGGATT
# B21: CCCUGCU (DNA:RNA)
# RNA: B18 RNA with A25C, U27C, U29G
# DNA 1: CAATCTGAATTCCGGTCTCCC
# DNA 2: TGGTGGCTACGACGGGATT
# B22: UGCCCUG (DNA:RNA)
# RNA: B1 RNA with C25U, A28C, C31G
# DNA 1: CAATCTGAATTCCGGTCTCCC
# DNA 2: TGGTGGCTACGACGGGATT
# B23: AGAAUGA (DNA:RNA)
# RNA: B3 RNA with G25A, U26G, G28A, G29U
# DNA 1: CAATCTGAATTCCGGTCTCCC
# DNA 2: TGGTGGCTACGACGGGATT
# B24: AGACACA (DNA:RNA)
# RNA: B18 RNA with C26G, U27A, U28C, U29A, U31A
# DNA 1: CAATCTGAATTCCGGTCTCCC
# DNA 2: TGGTGGCTACGACGGGATT
# B25: GGUGGCC (DNA:RNA)
# RNA: B3 RNA with U26G, A27U, G30C, A31C
# DNA 1: CAATCTGAATTCCGGTCTCCC
# DNA 2: TGGTGGCTACGACGGGATT
# B26: GUUCCAU (DNA:RNA)
# RNA: B18 RNA with A25G, C26U, U28C, U29C, C30A
# DNA 1: CAATCTGAATTCCGGTCTCCC
# DNA 2: TGGTGGCTACGACGGGATT
# B27: AUAGGUG (DNA:RNA)
# RNA: B3 RNA with G25A, G30U, A31G
# DNA 1: CAATCTGAATTCCGGTCTCCC
# DNA 2: TGGTGGCTACGACGGGATT
# B28: CACAUCU (DNA:RNA)
# RNA: B18 RNA with A25C, C26A, U27C, U28A
# DNA 1: CAATCTGAATTCCGGTCTCCC
# DNA 2: TGGTGGCTACGACGGGATT
# B29: AGGGAGG (DNA:RNA)
# RNA: B3 RNA with G25A, U26G, A27G, G29A, A31G
# DNA 1: CAATCTGAATTCCGGTCTCCC
# DNA 2: TGGTGGCTACGACGGGATT
# B30: UCUGUAG (DNA:RNA)
# RNA: B18 RNA with A25U, U28G, C30A, U31G
# DNA 1: CAATCTGAATTCCGGTCTCCC
# DNA 2: TGGTGGCTACGACGGGATT
# B31: AUCGACA (DNA:RNA)
# RNA: B3 RNA with G25A, A27C, G29A, G30C
# DNA 1: CAATCTGAATTCCGGTCTCCC
# DNA 2: TGGTGGCTACGACGGGATT
# Biological target: T1, RBFOX1 RRM
# Assay: EMSA; HiTS-Eq, 1 nM pool, 10 min; buffer printed only for the single-RNA assays: 10 mM Tris pH 7.5, 150 mM NaCl, 3.4 mM EDTA, 0.001% NP-40, 30 C
# Conditions: tags: His6 N-terminal (pET28a); label: 5' 32P
# How it was run: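 These values rest on relative association constants, computed from read-count changes of each RNA species versus the control reaction and normalised to the cognate motif. Reads came from free RNA recovered by 8% native PAGE after purified RbFox RRM (wild type or mutant) at increasing concentrations was equilibrated for 10 min in 50 µL with 1 nM of a 5′-radiolabelled pool with 7 randomized nucleotides and DNA-annealed flanks.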
row,Binder,binding signal
1,B1,0.00942 KA relative to UGCAUGU
2,B2,0.00983 KA relative to UGCAUGU
3,B3,0.00497 KA relative to UGCAUGU
4,B4,0.00411 KA relative to UGCAUGU
5,B5,0.00877 KA relative to UGCAUGU
6,B6,0.00417 KA relative to UGCAUGU
7,B7,0.00131 KA relative to UGCAUGU
8,B8,0.0109 KA relative to UGCAUGU
9,B9,0.00776 KA relative to UGCAUGU
10,B10,0.0129 KA relative to UGCAUGU
11,B11,0.00476 KA relative to UGCAUGU
12,B12,0.00254 KA relative to UGCAUGU
13,B13,0.00544 KA relative to UGCAUGU
14,B14,0.0113 KA relative to UGCAUGU
15,B15,0.0122 KA relative to UGCAUGU
16,B16,0.00017 KA relative to UGCAUGU

row,Binder,binding signal
1,B17,0.00453 KA relative to UGCAUGU
2,B18,0.00754 KA relative to UGCAUGU
3,B19,0.00028 KA relative to UGCAUGU
4,B20,0.0101 KA relative to UGCAUGU
5,B21,0.00518 KA relative to UGCAUGU
6,B22,0.025 KA relative to UGCAUGU
7,B23,0.0113 KA relative to UGCAUGU
8,B24,0.00246 KA relative to UGCAUGU
9,B25,0.0122 KA relative to UGCAUGU
10,B26,0.00792 KA relative to UGCAUGU
11,B27,0.0137 KA relative to UGCAUGU
12,B28,0.000528 KA relative to UGCAUGU
13,B29,0.0245 KA relative to UGCAUGU
14,B30,0.0145 KA relative to UGCAUGU
15,B31,0.00164 KA relative to UGCAUGU
